This is one part of the list.

This experiment deals with T1, OsWOX13 (Oryza sativa, UniProt Q5QMM3 1-267).
T1 sequence: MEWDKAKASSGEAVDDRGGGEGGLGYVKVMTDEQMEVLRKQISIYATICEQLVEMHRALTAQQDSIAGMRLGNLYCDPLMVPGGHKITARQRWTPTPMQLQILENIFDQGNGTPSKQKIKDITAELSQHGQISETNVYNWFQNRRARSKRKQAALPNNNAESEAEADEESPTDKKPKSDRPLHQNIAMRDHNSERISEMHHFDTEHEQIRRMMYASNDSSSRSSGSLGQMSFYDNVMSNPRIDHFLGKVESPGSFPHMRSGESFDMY
Nature of the experiment: protein-binding microarray (RPBM); PBS, 2% BSA, 51.3 ng/ul salmon testes DNA, 50 uM zinc acetate, 200 nM TF, 25 C, 1 h; high values mean tight binding. As to conditions: protein: recombinant; tags: N-terminal polyhistidine and DsRed monomer fusion (pET32a); label: CyDye5-dUTP incorporated in the synthesized complementary strand; 3' TTTTT single-stranded linker to array surface; dsDNA, one strand shown. An outline of the steps:
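Binding signal here means per-feature fluorescence intensity in arbitrary units. The values were read on an Axon 4000B scanner after a custom Agilent array, double-stranded by primer extension with Cy5-dUTP, was incubated with 200 nM protein at 25 °C for 1 h in PBS with 2% BSA, salmon testes DNA and 50 µM zinc acetate, then washed. The proteins were transcription factors with an N-terminal polyhistidine tag and DsRed, expressed in E. coli BL21-CodonPlus and purified on Ni–NTA.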
As for “AGGAACATATGATTAATTAAATGTCAGCTGTAGCAATTTTCGGAGTCACCTAGTGCAG”, the binding signal was 13000 fluorescence intensity (a.u.).

In the case of “ATTAATGTTATTAGGGTGATTAACTTATTTTGGGATGGACCGGAGTCACCTAGTGCAG”, the binding signal was 14500 fluorescence intensity (a.u.). Take “GAGATGATTAATTAGTAGTAATATCAACTAACATCTTTAACGGAGTCACCTAGTGCAG”: the binding signal is 31700 fluorescence intensity (a.u.).

Turning to “TGAGATTGAAAGTTGGGGCATAAACACAATTCTCCCTAATCGGAGTCACCTAGTGCAG”, the binding signal was 12500 fluorescence intensity (a.u.).

“TCAAATTCAAATTTGAATTGGGCATGTAAACTTTTGACTTCGGAGTCACCTAGTGCAG”: the binding signal is 7650 fluorescence intensity (a.u.).

As to “GGTAGTAAATTTTAGCCCTTATTGGATGAGATCAATTATCCGGAGTCACCTAGTGCAG”, the binding signal is 4080 fluorescence intensity (a.u.). On to “GTAGAATTGATGGCCGACGGATTCTTTGCTAGGTATATACCGGAGTCACCTAGTGCAG”, for which the binding signal is 12500 fluorescence intensity (a.u.). The figure for “TTTATCGATGATCGGTCTTGATTGCGTTTCTGTGGTTCGTCGGAGTCACCTAGTGCAG” is 10400 fluorescence intensity (a.u.); for “CTTAATTACGTGTTTAGTGCTTTACTTTGAGTTGGTTCAGCGGAGTCACCTAGTGCAG” it is 33400 fluorescence intensity (a.u.); for “TTGGTGATATTGATGGAGCATGTTTTATTTGATAGAATAGCGGAGTCACCTAGTGCAG” it is 3390 fluorescence intensity (a.u.). In the case of “AAAATGACAGTTGATGTTGATTCTCTATTGTACACACCTACGGAGTCACCTAGTGCAG”, the binding signal was 4160 fluorescence intensity (a.u.). The figure for “AATTAATTAATTAGTCTGTTCTTATTGCTTAGTGTACTACCGGAGTCACCTAGTGCAG” is 53600 fluorescence intensity (a.u.); for “CTGATTAGAAACAACAGGACAAGTGCGAAAGCATATTCCACGGAGTCACCTAGTGCAG” it is 6330 fluorescence intensity (a.u.); for “CTTATAATTGATTTATAGTCTGTCATTGTATCTGCTCTTACGGAGTCACCTAGTGCAG” it is 65100 fluorescence intensity (a.u.). With “TTTGCCAATCTATGCATTTACAGGCAAAAGATGGATCCTTCGGAGTCACCTAGTGCAG”, the binding signal is 10300 fluorescence intensity (a.u.). On to “ATGTAATTATATTGTAACTTATATATAACTATAATGTAATCGGAGTCACCTAGTGCAG”, for which the binding signal was 41800 fluorescence intensity (a.u.). In the case of “AAATGATAATGGAATTACGAAGCGCATGGGAAAACGACGGCGGAGTCACCTAGTGCAG”, the binding signal is 6590 fluorescence intensity (a.u.).

In the case of “GGCGCGCGCGGGTGATTGATTTCGCCGGCGGCGAGGGGAGCGGAGTCACCTAGTGCAG”, the binding signal was 17200 fluorescence intensity (a.u.). The result for “TACCATTGTCCATTGATTGAGGTGATCACTAGGCTGTCAACGGAGTCACCTAGTGCAG” reads 15700 fluorescence intensity (a.u.).

As to “GACTAAATAGATGGTACACGGATGATAATGGAAGATCACACGGAGTCACCTAGTGCAG”, the binding signal was 6660 fluorescence intensity (a.u.). The figure for “ACTAATAATGCAATCATGACAAACCAGCAAAGGAATAAACCGGAGTCACCTAGTGCAG” is 4830 fluorescence intensity (a.u.).

Take “CAATTAATGGATGCGTGATTCCTCGGTCCTGATGCAAGCACGGAGTCACCTAGTGCAG”: the binding signal is 22700 fluorescence intensity (a.u.). The figure for “CAGGAAAATGATTGATATTAATACTAGCAAGAATGGCACGCGGAGTCACCTAGTGCAG” is 50700 fluorescence intensity (a.u.). The result for “AAAATATAATCAAAATAATTTACTTATCCATGTAATCATACGGAGTCACCTAGTGCAG” reads 3770 fluorescence intensity (a.u.); that for “GAATATTGATGCTCAATTTAATAGGTCCATGGAGGCTATTCGGAGTCACCTAGTGCAG”, 7330 fluorescence intensity (a.u.). The figure for “TGCGACGCGATCAAATCAAATCATCCATCAAGCTGTAGCGCGGAGTCACCTAGTGCAG” is 4030 fluorescence intensity (a.u.); for “ACTCCAAAGTAAATGATTAGAGATCTAGGAAGCAGAGAATCGGAGTCACCTAGTGCAG” it is 4310 fluorescence intensity (a.u.). With “ATTTTAATCATGATGGATACAATAATACAACGATCACTGTCGGAGTCACCTAGTGCAG”, the binding signal was 10200 fluorescence intensity (a.u.). On to “TGTATGATGTGTTAGCGTTGATTTGGCACGCCAAGACGGACGGAGTCACCTAGTGCAG”, for which the binding signal was 3540 fluorescence intensity (a.u.). Turning to “ACACGTAATGGATACTTTTGCCGAAGTGAACACATGCTTTCGGAGTCACCTAGTGCAG”, the binding signal was 3140 fluorescence intensity (a.u.). The figure for “AATTACATATGTAATTTTAGTGTATTTACAATGTAAGTTCCGGAGTCACCTAGTGCAG” is 3190 fluorescence intensity (a.u.).

As for “ATTTGGTTAATTTTGCGCGTTCCTTCCTTCCTTCCTCAACCGGAGTCACCTAGTGCAG”, the binding signal was 5630 fluorescence intensity (a.u.). With “TTCAATCTAAATCATTCATCATTTCTCCATTATCTAACATCGGAGTCACCTAGTGCAG”, the binding signal is 4680 fluorescence intensity (a.u.). The result for “TAACTAATTAGTTAACTAATCGTCAATGTCACTAGCTTCTCGGAGTCACCTAGTGCAG” reads 45100 fluorescence intensity (a.u.); that for “CAAATCAAATTACCACATAAGCACCACGTCAATGCCACGTCGGAGTCACCTAGTGCAG”, 6610 fluorescence intensity (a.u.); that for “TAACAAATTTAATTGTAAACATACCTATAATAATTTGAGTCGGAGTCACCTAGTGCAG”, 21300 fluorescence intensity (a.u.). The result for “ATCCTTGATTATCTCTACCTGAATAATACAGAGAGATACCCGGAGTCACCTAGTGCAG” reads 23000 fluorescence intensity (a.u.). The result for “CAACAAATTGAAACCCACGCACTTCACTTCGCTCACCACACGGAGTCACCTAGTGCAG” reads 23200 fluorescence intensity (a.u.); that for “ATCCAATTATCCTGTCGGACCCCGTCCTCTGAAAACAAATCGGAGTCACCTAGTGCAG”, 5120 fluorescence intensity (a.u.); that for “GCTATATTGGTTAACATCAGTGATTCCTGTGTCAATTAGCCGGAGTCACCTAGTGCAG”, 4590 fluorescence intensity (a.u.).

For “CGCTTATGATAGGCATCACCGACATTCGCTACTTCACCGACGGAGTCACCTAGTGCAG”, the binding signal is 4980 fluorescence intensity (a.u.).

Take “TAATCTCTTGATGATTTGCTGTAACTACATTCCCTTGATACGGAGTCACCTAGTGCAG”: the binding signal is 4820 fluorescence intensity (a.u.). Regarding “TAGTGATGTGCTGTTTACGGTAATTTCTTCAATCTCAAGACGGAGTCACCTAGTGCAG”, the binding signal is 4160 fluorescence intensity (a.u.). Turning to “ATAAGAAATTAATCGTTCGCTAATAGCTTATTTTATTTTGCGGAGTCACCTAGTGCAG”, the binding signal is 5040 fluorescence intensity (a.u.). The figure for “TTTATTCATAATTTACTTGTTTCCCGGAGAACTTTTACTTCGGAGTCACCTAGTGCAG” is 3210 fluorescence intensity (a.u.); for “CACCCATTATCCATGCTAATTAATTTGCATTTAGAGATCACGGAGTCACCTAGTGCAG” it is 18000 fluorescence intensity (a.u.); for “GATGATCAGTTTGTCCAATCCCTATTCCATTTTGAACCTTCGGAGTCACCTAGTGCAG” it is 3320 fluorescence intensity (a.u.). The result for “GAGATTGACGATCTAGGAATCAAATTTAGTTCAAGCCATCCGGAGTCACCTAGTGCAG” reads 40300 fluorescence intensity (a.u.). Take “TAAGCCTAATTAATTTGTCATTAGCAAATGTTTACTATAGCGGAGTCACCTAGTGCAG”: the binding signal is 30300 fluorescence intensity (a.u.). “CGGTGGTTTTGATTTCTCCTGATTGCTGAGGCGATTGCCCCGGAGTCACCTAGTGCAG”: the binding signal was 11300 fluorescence intensity (a.u.). Take “AAAGATTGGCACGCATTCTTATCTAGTCAGTTTCTCTTCACGGAGTCACCTAGTGCAG”: the binding signal was 22500 fluorescence intensity (a.u.). Take “ATGGGAGGTGAGATTGGGATTGGGAAATAAATGAATGGCTCGGAGTCACCTAGTGCAG”: the binding signal is 5250 fluorescence intensity (a.u.). The result for “ACGAAACAAACTTCAGAGTTAATTTGCCCTTGGCACAGGCCGGAGTCACCTAGTGCAG” reads 3570 fluorescence intensity (a.u.). The figure for “TGAGGAATTATATTGTTAATTCCCCTCTCATTTGAGTGCTCGGAGTCACCTAGTGCAG” is 4720 fluorescence intensity (a.u.).

For the origin of these results see PMC7819943, “Rice protein-binding microarrays: a tool to detect cis-acting elements near promoter regions in rice”.
